This is an account of results in PubChem BioAssay AID1508623 (National Center for Advancing Translational Sciences (NCATS), 2021).

Structures are written as SMILES. In all, about 48,000 compounds went through this assay and about 450 (0.94%) were called active. Roughly 19% stayed inconclusive and do not appear here. Calls follow the shape of the dose curve; as a rule, active = well fitted inhibition curve with a large enough effect; inconclusive = small, poorly fitted or top-dose-only effect; inactive = no such curve, though single readings can be large or run the other way. Some of the results follow.

The nature of this test: Primary qHTS for Identification of Small Molecule Inhibitors of Huntingtin Promoter Activity. Also: nearly all actives have a fitted effect of over 50% in size. To be noted: HEK293 HTT promoter firefly luciferase reporter (activity 0% = vehicle and -100% = no light), 24 h; series mostly up to 57.5 µM; activity change, negative = inhibition: at the top concentration. A digest of the protocol: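 Firefly luciferase signal from promoter-reporter HEK293 cells was scaled between vehicle (0%) and zero RLU (-100%). Compounds were tested at final concentrations of up to 57.5 uM over 24 h at 37 degrees C. PTC124 at 50 uM final served as control inhibitor.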
Take `COc1cccc(NC(=O)Cn2nc(-c3ccncc3)ccc2=O)c1`: the activity change, negative = inhibition is inactive: -11% [at 11.5 µM].
The figure for `O=C(c1c[nH]c2ccc(S(=O)(=O)Nc3ccccc3F)cc2c1=O)N1CCCCCC1` is inactive: -1.47%.
The figure for `CCOc1ccc(NC(=O)C(=O)NCCc2sc(-c3ccc(C)cc3)nc2C)cc1` is inactive: -7.38%; for `COc1ccc(OC)c(NC(=O)C2CCN(S(=O)(=O)c3c(C)noc3/C=C/c3ccc(C)cc3)CC2)c1` it is inactive: -5.84%; for `CC1CCCCN1CCCNC(=O)c1sc2ncccc2c1-n1cccc1` (configuration not stated) it is inactive: -9.61%.
The figure for `CCC(C)n1c(=N)c(C(=O)NCc2ccco2)cc2c(=O)n3cc(C)ccc3nc21` (configuration not stated) is inactive: 14.6%.
As for `Cc1cccc(Cn2c(CN3CCC(C(=O)NCc4ccccc4Cl)CC3)cc3ccccc32)c1`, the “activity change, negative = inhibition” value is inactive: 11%.
On to `COc1ccc(Cn2c(CNS(=O)(=O)c3ccc(Cl)s3)nc3cccnc32)cc1`, for which the “activity change, negative = inhibition” value was inactive: -16%.
As for `O=S(=O)(NCc1csc(-c2ccccc2)n1)c1ccccc1`, the “activity change, negative = inhibition” value is inactive: -11%.
The figure for `Cc1ccc(C(=O)Nc2cc(-c3nc4cc(Cl)ccc4o3)ccc2C)c(C)c1` is inactive: 11.4%; for `CCCN1C(=O)c2[nH]nc(-c3ccc(OC)cc3)c2C1c1ccccn1` (configuration not stated) it is inactive: 0.513%; for `COC(=O)c1sc(N2C(=O)c3oc4cc(C)c(C)cc4c(=O)c3C2c2ccccc2F)nc1C` (configuration not stated) it is inactive: -19.4%.
For `C=CC(=O)Nc1cccc(Oc2nc(Nc3ccc(N4CCN(C)CC4)cc3OC)ncc2Cl)c1`, the “activity change, negative = inhibition” value is inactive: -15.6%.
As for `CCOCCCNC(=O)C1CCN(c2nc3ccc(Cl)cc3[nH]2)CC1`, the “activity change, negative = inhibition” value was inactive: 14.4%.
As for `O=C(c1cnn(-c2ccc(F)cc2)c1-n1cccc1)N1CCN(c2cccc(Cl)c2)CC1`, the figure is inactive: -27.1%.
As for `O=C(Cn1c(=O)n(Cc2ccco2)c(=O)c2ccccc21)Nc1cccc(F)c1`, the figure is inactive: -14.3%; as for `COc1ccc(NC(=O)Cn2c(=O)n(Cc3ccco3)c(=O)c3sc4ccccc4c32)cc1OC`, inactive: -14.3%.
With `CC(=O)c1ccc(NC(=O)c2cnc(N3CCCC3)nc2C)cc1`, the “activity change, negative = inhibition” value was inactive: -13.8%.
For the compound `CCOc1cc(C#N)c(NC(=O)c2ccc(OC)c(S(=O)(=O)N3CCCCC3)c2)cc1OCC`, the “activity change, negative = inhibition” value is inactive: -12.7%.
The figure for `Cc1ccc(-n2c(-c3ccc(Br)cc3)nc3c(cnn3-c3ccccc3)c2=O)cc1` is inactive: -28.8%.
As for `CCc1ccccc1NC(=O)Cn1c(=O)n(-c2ccccc2)c(=O)c2oc3ccccc3c21`, the figure is inactive: 4.96%; as for `Cc1c2cnn(-c3ccccc3)c(=O)c2c(C)n1CC(=O)Nc1ccccc1Br`, inactive: -12.1%.
As for `COc1ccccc1N1CCN(S(=O)(=O)c2ccc(-c3coc(C)n3)cc2)CC1`, the figure is inactive: -5.75%; as for `Cc1ccc(N2CCN(C(=O)c3cn(C)c4ccc(S(=O)(=O)N5CCC(C)CC5)cc4c3=O)CC2C)cc1` (configuration not stated), inactive: 71.3% [at 11.5 µM]; as for `COc1ccc2c(c1)CC(C(=O)Nc1ccc(Br)c(C)c1)CO2` (configuration not stated), inactive: -29.2%.
For the compound `CCN(C(=O)CSc1nc(-c2ccc(C(C)C)cc2)no1)c1ccccc1`, the “activity change, negative = inhibition” value was inactive: -28.4%.
As for `COc1ccc(C(=O)NCC(=O)OCc2cc(=O)n3nc(C4CCCCC4)sc3n2)cc1`, the figure is inactive: -4.03%; as for `Cc1ccccc1-c1nc(CS(=O)(=O)CC(=O)NCCCN2CCN(C)CC2)c(C)o1`, inactive: -17%.
As for `Cc1c(N(C)CS(=O)(=O)O)c(=O)n(-c2ccccc2)n1C`, the figure is inactive: 7.18%; as for `COc1ccc(NC(=O)CSc2nncn3c2cc2occc23)c(OC)c1`, inactive: 5.33%; as for `COc1ccc(-n2nnc(-c3nc(-c4ccc5c(c4)OCO5)no3)c2C)cc1Cl`, inactive: -2.17%.
The figure for `CCOC(=O)c1ccc(NC(=O)CCc2c(C)nc3cc(-c4ccc(OC)cc4OC)nn3c2C)cc1` is inactive: -15.6%; for `CC(C)Oc1ccc(C(=O)N2CCC(c3nc4ccccc4s3)CC2)cc1` it is inactive: -20.1%.
For the compound `COc1cc(C(=O)Nc2ccc(-c3nc4cc(C)c(C)cc4o3)cc2)cc(OC)c1OC`, the activity change, negative = inhibition was inactive: -9.64% [at 11.5 µM].
The figure for `CC(=O)Nc1ccc(S(=O)(=O)N2CCC(n3c(C)nc4cccnc43)CC2)cc1` is inactive: -27.3%.
The figure for `CCC(C)NC(=O)Cn1c(=O)n(-c2cc(OC)cc(OC)c2)c(=O)c2ccccc21` (configuration not stated) is inactive: -10.2%.
As for `Cc1ccc2c(CNCCc3ccco3)c(C(=O)O)n(Cc3ccc(F)cc3)c2c1`, the figure is inactive: -18.9%; as for `CCOc1ccc(CN(CCc2ccc3c(c2)OCO3)Cc2cc(OC)cc(OC)c2)cc1`, inactive: -28.5%.
For `COc1ccc(NC(=O)CCCc2nnc3n(C(C)C)c(=O)c4sccc4n23)cc1Cl`, the “activity change, negative = inhibition” value is inactive: -5.68%.
The figure for `O=C(CSc1nccn1Cc1ccco1)Nc1ccc(OC(F)(F)F)cc1` is inactive: 24.2%.
With `Cc1cc(=O)[nH]c2nnc(SCc3cccc(C(F)(F)F)c3)n12`, the “activity change, negative = inhibition” value is inactive: -3.74%.
The figure for `CCOc1ccc(NC(=O)Cn2cc(C(=O)C3CC3)c3ccccc32)cc1` is inactive: -6.97%.
Turning to `COc1ccc(C(=O)Nc2ccc(-c3nc4cc(C)ccc4o3)c(O)c2)cc1`, the “activity change, negative = inhibition” value is inactive: 1.21%.
The figure for `COc1cc(Cl)c(NC(=O)CN2C(=O)c3cccnc3Sc3ccccc32)c(OC)c1` is inactive: -23.7%; for `CC(C)c1ccc(NC(=O)Cn2nnc(C(=O)NCCc3ccccc3)c2N)cc1` it is inactive: -13.9%.
On to `Cc1nc(N2CCOCC2)c2c(C(=O)N3CCN(c4cccc(C(F)(F)F)c4)CC3)c(C)oc2n1`, for which the “activity change, negative = inhibition” value is inactive: -12.5%.
As for `Cc1cccc2nc(-c3ccc(Cl)s3)c(Nc3ccc4c(c3)OCCO4)n12`, the figure is inactive: 4.58%.
